{
  "source": "patent US11446314B2",
  "about": "“Immunoablative therapies” (AVM Biotechnology LLC, priority 2018, dated 2022)",
  "key": {"peripheral blood cells [1]": {"tested_on": "peripheral blood cells", "experiment": "Complete blood count in rats 48 hours after IV or PO dexamethasone", "procedure": "FIG. 7. […] Data in FIGS. 3, 4, and 6 are from the same rats. […] Oral (left) and IV (right) doses were administered 1×48 hours before blood withdrawal."}, "peripheral blood cells [2]": {"tested_on": "peripheral blood cells", "experiment": "Flow cytometry and complete blood count in male mice after oral dexamethasone", "text": "FIG. 9. […] Treg lymphocytes were identified by being CD3+CD4+CD25+FoxP3+.\nFIG. 12. […] Cells/ul=absolute numbers obtained from CBC."}, "[3]": {"settings": "male mice, 12 mg/kg HED group vs control, 24-48 hours"}},
  "data": [
    {"smiles": "C[C@@H]1C[C@H]2[C@@H]3CCC4=CC(=O)C=C[C@]4(C)[C@@]3(F)[C@@H](O)C[C@]2(C)[C@@]1(O)C(=O)CO", "note": "[dexamethasone]", "values": [
      {"measurement": "RBCs, platelets, Hct, HgB", "setting": "peripheral blood cells [1]", "value": "not affected"},
      {"measurement": "reduction of absolute lymphocyte count", "setting": "peripheral blood cells [2]; C57B1 male mice, vs placebo, 24-48 hours", "value": 84, "unit": "%"},
      {"measurement": "reduction in B cells", "setting": "peripheral blood cells [2]; [3]", "value": 83, "unit": "%"},
      {"measurement": "reduction in CD3+ cells", "setting": "peripheral blood cells [2]; [3]", "value": 65, "unit": "%"},
      {"measurement": "reduction in CD4+ cells", "setting": "peripheral blood cells [2]; [3]", "value": 75, "unit": "%"},
      {"measurement": "reduction in CD8+ cells", "setting": "peripheral blood cells [2]; [3]", "value": 56, "unit": "%"},
      {"measurement": "reduction in NK cells", "setting": "peripheral blood cells [2]; [3]", "value": 87, "unit": "%"},
      {"measurement": "reduction in Tregs", "setting": "peripheral blood cells [2]; [3]", "value": 78, "unit": "%"},
      {"measurement": "lymphoablation", "setting": "peripheral blood cells [2]; normal mice, HED doses greater than 12 mg/kg", "value": "almost complete lymphoabalation"}
    ]}
  ]
}
